Measurements as given in PubChem BioAssay AID624417 (National Center for Advancing Translational Sciences (NCATS), 2012).
About 6,400 (1.6%) of roughly 410,000 compounds were called active. This list was built around the results that the source calls inconclusive (neither active nor inactive); the mix of calls is not that of the screen. The call rests on the fitted dose curve; in most records, active means well fitted inhibition curve with a large enough effect; inconclusive means small, poorly fitted or top-dose-only effect; inactive means no such curve, though single readings can be large or run the other way. No potency is given beside an inconclusive call; the fits are too rough.

target: Glucagon-like peptide 1 receptor (Homo sapiens) (UniProt P43220); assay: qHTS of GLP-1 Receptor Inverse Agonists (Inhibition Mode); settings: HEK293 GLP-1R CRE-luciferase, luminescence, 24 h, GLP-1R form is constitutively active; activity change, negative = inhibition: at 38.3 µM (top of the series) unless noted; further: nearly all actives have a fitted effect of over 55% in size
Method in brief: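 Readout was luciferase luminescence, measured 12 min after detection reagent at room temperature. Beforehand, GLP-1R reporter HEK293 cells had sat 12 h, then received compounds for 24 hr at 37 deg C.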
On the % scale 0 is the no-effect control and ±100 the full control effect; potency means the concentration at half of the fitted maximal effect; tags describe the fitted curve by direction and shape.

Chain of UniProt P43220 (P43220 whole entry, looked up): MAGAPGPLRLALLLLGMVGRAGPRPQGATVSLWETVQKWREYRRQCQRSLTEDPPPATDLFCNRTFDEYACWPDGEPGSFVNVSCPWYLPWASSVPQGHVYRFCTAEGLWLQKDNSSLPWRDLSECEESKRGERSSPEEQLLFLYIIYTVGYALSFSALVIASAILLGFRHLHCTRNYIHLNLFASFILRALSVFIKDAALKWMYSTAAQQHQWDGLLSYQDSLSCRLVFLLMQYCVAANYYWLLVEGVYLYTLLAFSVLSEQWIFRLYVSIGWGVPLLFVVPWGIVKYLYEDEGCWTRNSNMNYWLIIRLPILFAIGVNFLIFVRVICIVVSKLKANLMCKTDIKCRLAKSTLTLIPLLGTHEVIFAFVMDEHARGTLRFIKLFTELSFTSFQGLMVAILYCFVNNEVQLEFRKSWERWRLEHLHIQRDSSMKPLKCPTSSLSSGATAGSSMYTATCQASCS

Row | Structure (SMILES) | Potency | activity change, negative = inhibition
1 | CCOc1ccccc1NC(=O)Cc1ccccc1OC | inconclusive [inhibitor, single point] | –
2 | CCN(Cc1ccccc1)Cc1c(O)ccc2c(=O)c(-c3ccccc3OC)c(C(F)(F)F)oc12 | inconclusive [inhibitor, full curve, poor fit] | –
3 | Cc1cccc(OCCSc2nc3ccccc3n2CC(=O)N2CCCCC2)c1C | inconclusive [inhibitor, single point] | –
4 | N#CC1=C(N)N(c2ccccc2)C(c2ccco2)C1(C#N)C#N (centres undefined) | – | inactive: 70%
5 | O=C(Nn1cnnc1)c1csc2ccccc12 | – | inactive: 4.18%
6 | O=C(CCNC(=O)c1ccc(Br)cc1)Nc1cccc(S(=O)(=O)N2CCCCCC2)c1 | inconclusive [inhibitor, partial curve, poor fit] | –
7 | Cc1nc(Nc2cccc(O)c2)c2c3c(sc2n1)CCC3 | inconclusive [inhibitor, single point] | –
8 | COC(=O)[C@]12CCCCC=C1N(Cc1ccco1)C(=O)[C@H](CC(=O)N1CCN(C(=O)c3ccco3)CC1)C2 | – | inactive: 3.26%
9 | c1ccc(CSc2ncnc3c2cnn3Cc2ccccc2)cc1 | – | inactive: -31.9%
10 | CCN(C(=O)CCc1nc(-c2ccc(C)cc2)no1)c1cc(C)ccc1C | inconclusive [inhibitor, single point] | –
11 | COc1ccc(CN2CCC(C(=O)Nc3ccc(Oc4ccccc4)nc3)CC2)cc1F | inconclusive [inhibitor, partial curve, poor fit] | –
12 | Cc1cccc(N2CCN(C(=O)c3cn(C4CCCCC4)c(=O)c4c3c3ccccc3n4C)CC2)c1C | inconclusive [inhibitor, single point] | –
13 | CCC(=O)N(Cc1cc2c(C)ccc(C)c2[nH]c1=O)C1CCCCC1 | inconclusive [inhibitor, partial curve, poor fit] | –
14 | CCc1nnc(NC(=O)c2cc(-c3ccc(C)o3)nc3ccccc23)s1 | – | inactive: 13.4%
15 | CN(C)c1ccc(/C=C/c2nc3ccccc3c(=O)[nH]2)cc1 | inconclusive [inhibitor, full curve] | –
16 | COc1ccc(-c2cn3c(n2)sc2cc(C(=O)NC4CCCc5ccccc54)ccc23)cc1 (centres undefined) | – | inactive: 14.6%
17 | Cc1cc(C(=O)O)c2c(=O)n(C)c(=O)n(C)c2n1 | – | inactive: 10.4%
18 | CN1CC(c2ccc(Cl)c(Cl)c2)[C@@]2(COc3ccccc3C2=O)[C@@]12C(=O)Nc1ccccc12 (some centres undefined) | inconclusive [inhibitor, single point] | –
19 | COc1cccc(OCC(O)CN2CCC(Cc3ccccc3)CC2)c1 (centres undefined) | inconclusive [inhibitor, partial curve, poor fit] | –
